{
  "source": "the supplement of paper PMC8728848",
  "binders": {"B1": {"name": "PX9961C-bth-497-22-497 (Bacteroides thetaiotaomicron) (protein)", "chain": "DWLDLNTTSSVETGQAIVTLDDAQIALNGIYRLASGHSYYGDNYWYYGDCRAADVQARITKGDGKRVSPYYEYNVLASDNLNIVLPWNTVYKVIRQTNNLIQKIESGSIQSSDTKELNRIKSEALVMRGLSLFNLTRLFGMPYTNDKGASLGVPIETSPSDPTHKPSRSTVAQCYEQVVSDMSNALSGLRQETSNGYINYWAAQALLSRVYLNMGEYQKAYDAATDVIKNNGGRYQLYSYEEYPNVWGQDFQSESLFELYITLSEPSGGTGGEGAPMVYANEATVDWNNLILSEDFLNLLNEDPKDVRHCLTKESVIENNTGLPAAAMHEKVYLAKFPGKTGDDPKTNNICIIRLSEVYLNAAEAGLKKGTDIEEAQGYLNDIISRRTTDTSQQVSTETFTLDRILKERRKELVGEGEVFYDYLRNGLAIERKGSWHLETLKASNAQKIEATDLRIALPIPQSEIDANPNIQQNPR"}},
  "assay_in_all_cases": "glycan array binding signal (z-score within array); higher = stronger binding",
  "conditions_in_all_cases": "glycan notation: IUPAC condensed, linker removed",
  "key": {"[1]": {"target": "Gal(a1-3)[Gal(a1-4)]Gal(b1-4)GlcNAc", "outline": "(§1)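 From the Consortium for Functional Glycomics database, 3228 arrays were curated, keeping only those whose protein sequence was available. Binding is given as a within-array Z-score averaged across arrays sharing a protein sequence and across linkers. Negative Z-scores can be read as non-binding.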"}, "[2]": {"target": "Gal(a1-4)Gal(b1-3)GlcNAc(b1-2)Man(a1-3)[Gal(a1-4)Gal(b1-3)GlcNAc(b1-2)Man(a1-6)]Man(b1-4)GlcNAc(b1-4)GlcNAc", "outline": "as §1"}, "Gal(a1-4)Gal(b1-4)Glc": {"target": "Gal(a1-4)Gal(b1-4)Glc", "outline": "as §1"}, "Gal(a1-4)Gal(b1-4)GlcNAc": {"target": "Gal(a1-4)Gal(b1-4)GlcNAc", "outline": "as §1"}, "[3]": {"target": "Gal(a1-4)Gal(b1-4)GlcNAc(b1-2)Man(a1-3)[Gal(a1-4)Gal(b1-4)GlcNAc(b1-2)Man(a1-6)]Man(b1-4)GlcNAc(b1-4)GlcNAc", "outline": "as §1"}, "[4]": {"target": "Gal(a1-4)Gal(b1-4)GlcNAc(b1-3)Gal(b1-4)Glc", "outline": "as §1"}, "Gal(a1-4)GlcNAc": {"target": "Gal(a1-4)GlcNAc", "outline": "as §1"}, "Gal(a1-6)Glc": {"target": "Gal(a1-6)Glc", "outline": "as §1"}, "Gal(b1-2)Gal": {"target": "Gal(b1-2)Gal", "outline": "as §1"}, "Gal(b1-3)Gal": {"target": "Gal(b1-3)Gal", "outline": "as §1"}, "Gal(b1-3)Gal(b1-4)GlcNAc": {"target": "Gal(b1-3)Gal(b1-4)GlcNAc", "outline": "as §1"}, "Gal(b1-3)GalNAc": {"target": "Gal(b1-3)GalNAc", "outline": "as §1"}, "[5]": {"target": "Gal(b1-3)GalNAc(a1-3)[Fuc(a1-2)]Gal(b1-4)Glc", "outline": "as §1"}, "[6]": {"target": "Gal(b1-3)GalNAc(a1-3)[Fuc(a1-2)]Gal(b1-4)GlcNAc", "outline": "as §1"}, "Gal(b1-3)GalNAc(b1-3)Gal": {"target": "Gal(b1-3)GalNAc(b1-3)Gal", "outline": "as §1"}, "[7]": {"target": "Gal(b1-3)GalNAc(b1-3)Gal(a1-4)Gal(b1-4)Glc", "outline": "as §1"}, "[8]": {"target": "Gal(b1-3)GalNAc(b1-4)Gal(b1-4)Glc", "outline": "as §1"}, "[9]": {"target": "Gal(b1-3)GalNAc(b1-4)[Neu5Ac(a2-3)]Gal(b1-4)Glc", "outline": "as §1"}, "Gal(b1-3)GlcNAc": {"target": "Gal(b1-3)GlcNAc", "outline": "as §1"}, "[10]": {"target": "Gal(b1-3)GlcNAc(a1-3)Gal(b1-4)GlcNAc", "outline": "as §1"}, "[11]": {"target": "Gal(b1-3)GlcNAc(a1-6)Gal(b1-4)GlcNAc", "outline": "as §1"}, "Gal(b1-3)GlcNAc(b1-2)Man": {"target": "Gal(b1-3)GlcNAc(b1-2)Man", "outline": "as §1"}, "[12]": {"target": "Gal(b1-3)GlcNAc(b1-2)Man(a1-3)[Gal(b1-3)GlcNAc(b1-2)Man(a1-6)]Man(b1-4)GlcNAc(b1-4)GlcNAc", "outline": "as §1"}, "[13]": {"target": "Gal(b1-3)GlcNAc(b1-2)Man(a1-3)[Gal(b1-3)GlcNAc(b1-2)Man(a1-6)]Man(b1-4)GlcNAc(b1-4)[Fuc(a1-6)]GlcNAc", "outline": "as §1"}, "[14]": {"target": "Gal(b1-3)GlcNAc(b1-2)Man(a1-3)[GlcNAc(b1-4)][Gal(b1-3)GlcNAc(b1-2)Man(a1-6)]Man(b1-4)GlcNAc(b1-4)GlcNAc", "outline": "as §1"}, "[15]": {"target": "Gal(b1-3)GlcNAc(b1-2)[Gal(b1-3)GlcNAc(b1-6)]Man(a1-6)[Gal(b1-3)GlcNAc(b1-2)Man(a1-3)]Man(b1-4)GlcNAc(b1-4)GlcNAc", "outline": "as §1"}, "[16]": {"target": "Gal(b1-3)GlcNAc(b1-3)Gal(b1-3)GlcNAc", "outline": "as §1"}, "[17]": {"target": "Gal(b1-3)GlcNAc(b1-3)Gal(b1-4)Glc", "outline": "as §1"}, "[18]": {"target": "Gal(b1-3)GlcNAc(b1-3)Gal(b1-4)GlcNAc", "outline": "as §1"}, "[19]": {"target": "Gal(b1-3)GlcNAc(b1-3)Gal(b1-4)GlcNAc(b1-2)Man(a1-3)[Gal(b1-3)GlcNAc(b1-3)Gal(b1-4)GlcNAc(b1-2)Man(a1-6)]Man(b1-4)GlcNAc(b1-4)GlcNAc", "outline": "as §1"}, "[20]": {"target": "Gal(b1-3)GlcNAc(b1-3)Gal(b1-4)GlcNAc(b1-2)[Gal(b1-3)GlcNAc(b1-3)Gal(b1-4)GlcNAc(b1-6)]Man(a1-6)[Gal(b1-3)GlcNAc(b1-3)Gal(b1-4)GlcNAc(b1-2)Man(a1-3)]Man(b1-4)GlcNAc(b1-4)[Fuc(a1-6)]GlcNAc", "outline": "as §1"}, "[21]": {"target": "Gal(b1-3)GlcNAc(b1-3)Gal(b1-4)GlcNAc(b1-3)Gal(b1-4)GlcNAc(b1-2)[Gal(b1-3)GlcNAc(b1-3)Gal(b1-4)GlcNAc(b1-3)Gal(b1-4)GlcNAc(b1-6)]Man(a1-6)[Gal(b1-3)GlcNAc(b1-3)Gal(b1-4)GlcNAc(b1-3)Gal(b1-4)GlcNAc(b1-2)Man(a1-3)]Man(b1-4)GlcNAc(b1-4)[Fuc(a1-6)]GlcNAc", "outline": "as §1"}, "[22]": {"target": "Gal(b1-3)GlcNAc(b1-3)Gal(b1-4)GlcNAc(b1-6)[Gal(b1-3)GlcNAc(b1-3)]Gal(b1-4)Glc", "outline": "as §1"}, "[23]": {"target": "Gal(b1-3)GlcNAc(b1-3)Gal(b1-4)[Fuc(a1-3)]GlcNAc", "outline": "as §1"}, "[24]": {"target": "Gal(b1-3)GlcNAc(b1-3)Gal(b1-4)[Fuc(a1-3)]GlcNAc(b1-6)[Gal(b1-3)GlcNAc(b1-3)]Gal(b1-4)Glc", "outline": "as §1"}, "[25]": {"target": "Gal(b1-3)GlcNAc(b1-3)GalNAc", "outline": "as §1"}, "[26]": {"target": "Gal(b1-3)GlcNAc(b1-6)Gal(b1-4)GlcNAc", "outline": "as §1"}, "[27]": {"target": "Gal(b1-3)GlcNAc(b1-6)GalNAc", "outline": "as §1"}},
  "note": "The other results are listed elsewhere or left out.",
  "data": [
    {"binder": "B1", "values": [
      {"measurement": "glycan array binding signal (z-score)", "setting": "[1]", "value": 2.48},
      {"measurement": "glycan array binding signal (z-score)", "setting": "[2]", "value": -0.118},
      {"measurement": "glycan array binding signal (z-score)", "setting": "Gal(a1-4)Gal(b1-4)Glc", "value": -0.164},
      {"measurement": "glycan array binding signal (z-score)", "setting": "Gal(a1-4)Gal(b1-4)GlcNAc", "value": -0.304},
      {"measurement": "glycan array binding signal (z-score)", "setting": "[3]", "value": -0.151},
      {"measurement": "glycan array binding signal (z-score)", "setting": "[4]", "value": -0.274},
      {"measurement": "glycan array binding signal (z-score)", "setting": "Gal(a1-4)GlcNAc", "value": -0.17},
      {"measurement": "glycan array binding signal (z-score)", "setting": "Gal(a1-6)Glc", "value": -0.583},
      {"measurement": "glycan array binding signal (z-score)", "setting": "Gal(b1-2)Gal", "value": 0.181},
      {"measurement": "glycan array binding signal (z-score)", "setting": "Gal(b1-3)Gal", "value": 0.542},
      {"measurement": "glycan array binding signal (z-score)", "setting": "Gal(b1-3)Gal(b1-4)GlcNAc", "value": -0.21},
      {"measurement": "glycan array binding signal (z-score)", "setting": "Gal(b1-3)GalNAc", "value": -0.469},
      {"measurement": "glycan array binding signal (z-score)", "setting": "[5]", "value": -0.046},
      {"measurement": "glycan array binding signal (z-score)", "setting": "[6]", "value": -0.307},
      {"measurement": "glycan array binding signal (z-score)", "setting": "Gal(b1-3)GalNAc(b1-3)Gal", "value": 0.6},
      {"measurement": "glycan array binding signal (z-score)", "setting": "[7]", "value": -0.445},
      {"measurement": "glycan array binding signal (z-score)", "setting": "[8]", "value": 1.34},
      {"measurement": "glycan array binding signal (z-score)", "setting": "[9]", "value": -0.411},
      {"measurement": "glycan array binding signal (z-score)", "setting": "Gal(b1-3)GlcNAc", "value": -0.317},
      {"measurement": "glycan array binding signal (z-score)", "setting": "[10]", "value": -0.184},
      {"measurement": "glycan array binding signal (z-score)", "setting": "[11]", "value": -0.401},
      {"measurement": "glycan array binding signal (z-score)", "setting": "Gal(b1-3)GlcNAc(b1-2)Man", "value": -0.101},
      {"measurement": "glycan array binding signal (z-score)", "setting": "[12]", "value": 0.717},
      {"measurement": "glycan array binding signal (z-score)", "setting": "[13]", "value": -0.066},
      {"measurement": "glycan array binding signal (z-score)", "setting": "[14]", "value": 0.492},
      {"measurement": "glycan array binding signal (z-score)", "setting": "[15]", "value": 14.1},
      {"measurement": "glycan array binding signal (z-score)", "setting": "[16]", "value": -0.306},
      {"measurement": "glycan array binding signal (z-score)", "setting": "[17]", "value": -0.383},
      {"measurement": "glycan array binding signal (z-score)", "setting": "[18]", "value": -0.282},
      {"measurement": "glycan array binding signal (z-score)", "setting": "[19]", "value": -0.183},
      {"measurement": "glycan array binding signal (z-score)", "setting": "[20]", "value": 0.491},
      {"measurement": "glycan array binding signal (z-score)", "setting": "[21]", "value": 0.461},
      {"measurement": "glycan array binding signal (z-score)", "setting": "[22]", "value": -0.329},
      {"measurement": "glycan array binding signal (z-score)", "setting": "[23]", "value": 0.021},
      {"measurement": "glycan array binding signal (z-score)", "setting": "[24]", "value": -0.391},
      {"measurement": "glycan array binding signal (z-score)", "setting": "[25]", "value": -0.805},
      {"measurement": "glycan array binding signal (z-score)", "setting": "[26]", "value": -0.218},
      {"measurement": "glycan array binding signal (z-score)", "setting": "[27]", "value": -0.427}
    ]}
  ]
}
